{
  "source": "PubChem BioAssay AID624417",
  "about": "(National Center for Advancing Translational Sciences (NCATS), 2012)",
  "note": "Hit rate of the full screen: of about 410,000 compounds, about 6,400 (1.6%) were called active. Inconclusive means that the source gave no clear call. Such entries were picked first, then a sample of the others. Calls come from the whole dose curve; as a rule, active = well fitted inhibition curve with a large enough effect; inconclusive = small, poorly fitted or top-dose-only effect; inactive = no such curve, though single readings can be large or run the other way. Potencies of inconclusive entries are left out as doubtful fits. % is set by controls: 0 for no effect and ±100 for the full control effect; potency is the fitted concentration of half-maximal effect; tags give direction and shape of the fitted curve.",
  "data": [
    {"target": "Glucagon-like peptide 1 receptor (Homo sapiens) (UniProt P43220)", "sequence (P43220 whole entry, looked up)": "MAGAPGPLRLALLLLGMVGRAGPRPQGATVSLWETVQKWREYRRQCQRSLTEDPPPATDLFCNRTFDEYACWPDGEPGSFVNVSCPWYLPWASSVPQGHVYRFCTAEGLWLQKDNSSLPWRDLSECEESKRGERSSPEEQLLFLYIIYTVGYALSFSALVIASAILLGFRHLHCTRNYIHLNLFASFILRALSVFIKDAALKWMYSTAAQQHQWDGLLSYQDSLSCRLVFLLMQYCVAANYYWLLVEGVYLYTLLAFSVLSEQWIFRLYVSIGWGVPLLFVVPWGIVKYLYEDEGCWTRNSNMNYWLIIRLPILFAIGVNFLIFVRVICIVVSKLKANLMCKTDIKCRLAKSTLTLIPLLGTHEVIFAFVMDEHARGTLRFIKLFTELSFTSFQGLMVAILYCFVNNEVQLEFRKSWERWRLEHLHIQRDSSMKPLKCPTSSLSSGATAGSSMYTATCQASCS", "experiment": "qHTS of GLP-1 Receptor Inverse Agonists (Inhibition Mode); note: nearly all actives have a fitted effect of over 55% in size", "conditions": "HEK293 GLP-1R CRE-luciferase, luminescence, 24 h, GLP-1R form is constitutively active; activity change, negative = inhibition: at 38.3 µM (top of the series) unless noted", "how_it_was_run": "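qHTS in 1536-well format: reporter HEK293 cells expressing constitutive GLP-1R activity in DMEM + 10% Nu serum, 24 hr with compounds at 37 deg C, luminescence read after 12 min with detection reagent.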", "values": [
      {"smiles": "O=C(Nc1ccc(F)cc1F)N1CCN(C/C=C/c2ccccc2)CC1", "Potency": "inconclusive [inhibitor, partial curve, poor fit]"},
      {"smiles": "Cc1cc(OCC(F)(F)C(F)(F)C(F)(F)C(F)(F)C(F)(F)C(F)F)nc(N)n1", "Potency": "inconclusive [inhibitor, single point]"},
      {"smiles": "COc1ccccc1NC(=O)Nc1nc(C(N)Cc2ccc(Cl)cc2)cs1", "note": "(stereo not drawn)", "Potency": "inconclusive [inhibitor, single point]"},
      {"smiles": "COC(=O)c1cc(NC(=O)CN(c2ccccc2OC)S(=O)(=O)c2ccccc2)ccc1Cl", "Potency": "inconclusive [inhibitor, partial curve, poor fit]"},
      {"smiles": "Cc1c(NC(=O)Nc2ccc(C(C)C)cc2)c(=O)n(-c2ccccc2)n1C", "Potency": "inconclusive [inhibitor, partial curve, poor fit]"},
      {"smiles": "O=C(Nc1ccc(C(F)(F)F)cc1)c1cc(S(=O)(=O)N2CCCc3ccccc32)ccc1F", "Potency": "inconclusive [inhibitor, partial curve, poor fit]"},
      {"smiles": "CN(C)C(=O)c1c2c(nc3ccccc13)-c1ccccc1CC2", "Potency": "inconclusive [inhibitor, partial curve, poor fit]"},
      {"smiles": "CC(Oc1cc2oc(=O)c3c(c2cc1Cl)CCC3)C(=O)NC1CC(C)(C)NC(C)(C)C1", "note": "(stereo not drawn)", "Potency": "inconclusive [inhibitor, single point]"},
      {"smiles": "c1ccc(CCc2ccccc2-c2nc(-c3cccnc3)no2)cc1", "Potency": "inconclusive [inhibitor, partial curve, poor fit]"},
      {"smiles": "O=C(O)c1ccc(COc2ccccc2/C=C2\\NC(=O)N(Cc3ccccc3F)C2=O)cc1", "activity change, negative = inhibition": "inactive: 26.7%"},
      {"smiles": "O=[N+]([O-])c1ccccc1/C=C/c1ccc2ccccc2n1", "Potency": "inconclusive [inhibitor, single point]"},
      {"smiles": "Cc1nn(-c2ccc3ccccc3c2)c(=O)c2ccccc12", "Potency": "inconclusive [inhibitor, single point]"},
      {"smiles": "COc1ccc(C(=O)Oc2cc(C(=S)N3CCOCC3)ccc2OC)cc1", "activity change, negative = inhibition": "inactive: -17.5%"},
      {"smiles": "Cc1ccc(CN2c3ccccc3-c3nc(SCC(=O)NCCc4ccccc4)ncc3S2(=O)=O)cc1", "activity change, negative = inhibition": "inactive: 41.1%"},
      {"smiles": "CC1CCC(NC(=O)CCC(=O)N2CC(C)Oc3ccccc32)CC1", "note": "(stereo not drawn)", "activity change, negative = inhibition": "inactive: -9.25%"},
      {"smiles": "COc1ccc(C)cc1NS(=O)(=O)c1ccc2c(c1)N(C)CCO2", "Potency": "inconclusive [inhibitor, single point]"},
      {"smiles": "CCOC(=O)c1cccc(NC(=O)CSc2cc(=O)n(C)c3ccccc23)c1", "activity change, negative = inhibition": "inactive: 16%"},
      {"smiles": "O=C(Cn1nnc(-c2ccccc2)n1)Nc1cccc(S(=O)(=O)N2CCCC2)c1", "Potency": "inconclusive [inhibitor, partial curve, poor fit]"},
      {"smiles": "O=C(OCC(=O)N1N=C(c2ccc(Cl)cc2)CC1c1ccco1)c1cncc(Br)c1", "note": "(stereo not drawn)", "Potency": "inconclusive [inhibitor, single point]"},
      {"smiles": "CC(=O)Nc1ccc(SCC(=O)Nc2ccccc2Oc2ccccc2)cc1", "Potency": "inconclusive [inhibitor, single point]"},
      {"smiles": "Cc1ccc(NC(=O)C2(C)CCN2C(=O)CCC2CCCC2)cc1C", "note": "(stereo not drawn)", "Potency": "inconclusive [inhibitor, partial curve, poor fit]"},
      {"smiles": "CCOC(=O)c1c(NC(=O)CC)sc2c1CCN(Cc1ccccc1)C2", "Potency": "inconclusive [inhibitor, single point]"},
      {"smiles": "O=C(O)c1cc(S(=O)(=O)Nc2ccc3c(c2)OCCO3)c(Cl)cc1Cl", "Potency": "inconclusive [inhibitor, partial curve, poor fit]"},
      {"smiles": "CC(Oc1ccccc1)C(=O)N1CCN=C1SCc1ccc(F)cc1", "note": "(stereo not drawn)", "Potency": "inconclusive [inhibitor, single point]"},
      {"smiles": "COc1ccc(N2C[C@H](CSC)[C@@H](CC(=O)Nc3ccc(Br)cc3)C2=O)cc1", "Potency": "inconclusive [inhibitor, partial curve, poor fit]"},
      {"smiles": "Cc1ccc(S(=O)(=O)N2CCN(c3ccnc4cc(Cl)ccc34)CC2)cc1", "Potency": "inconclusive [inhibitor, single point]"},
      {"smiles": "CSc1ccc(CN(C)C(=O)c2cccc(S(=O)(=O)N3CCN(Cc4ccccc4)CC3)c2)cc1", "Potency": "active: 11.2 µM"},
      {"smiles": "COc1cccc(CNC(=O)C2CCN(Cc3cc4ccccc4n3Cc3ccccc3)CC2)c1OC", "Potency": "inconclusive [inhibitor, partial curve, poor fit]"},
      {"smiles": "Cc1ccc(/C(N)=N/OC(=O)CN(C)S(=O)(=O)c2ccc(C)cc2)cc1", "Potency": "inconclusive [inhibitor, single point]"},
      {"smiles": "Cc1ccc(-c2nnc(Nc3ccc4c(c3)OCO4)c3ccccc23)cc1S(=O)(=O)NCCO", "Potency": "inconclusive [inhibitor, single point]"},
      {"smiles": "CCCNC(=O)N1c2ccccc2Sc2ccccc21", "Potency": "inconclusive [inhibitor, single point]"},
      {"smiles": "COC(=O)c1ccccc1N/C=C/C(=O)c1ccc(Br)cc1", "Potency": "inconclusive [inhibitor, single point]"},
      {"smiles": "CC1CCN(S(=O)(=O)c2ccc(NC(=O)Cc3cccs3)cc2)CC1", "Potency": "inconclusive [inhibitor, single point]"},
      {"smiles": "Cc1nnc2c3ccccc3nc(Nc3ccccc3C(=O)O)n12", "activity change, negative = inhibition": "inactive: 3.35%"},
      {"smiles": "CCOC(=O)c1cc(-c2ccc(N3CCOCC3)cc2)nn1-c1ccc(F)cc1F", "Potency": "inconclusive [inhibitor, single point]"},
      {"smiles": "O=C(c1cccs1)c1cn(CC(=O)N2CCc3ccccc3C2)c2ccccc12", "Potency": "inconclusive [inhibitor, full curve, poor fit]"},
      {"smiles": "Cc1ccc(Nc2nc(CSc3nnc(-c4ccccc4C)n3C)cs2)cc1", "Potency": "inconclusive [inhibitor, partial curve, poor fit]"},
      {"smiles": "CNC(=O)c1c(C)[nH]c(=S)c(C#N)c1-c1ccco1", "activity change, negative = inhibition": "inactive: 17.3%"},
      {"smiles": "CN(C)C(=O)c1cc(C(=O)c2ccc(Cl)cc2Cl)c[nH]1", "activity change, negative = inhibition": "inconclusive: -31.9% [inhibitor]"},
      {"smiles": "CCCc1cc(=O)oc2c(CN3CCN(C)CC3)c(O)ccc12", "Potency": "inconclusive [inhibitor, partial curve, poor fit]"},
      {"smiles": "Oc1c(C(c2ccccc2Cl)N2CCC(O)CC2)sc2nc(-c3ccco3)nn12", "note": "(stereo not drawn)", "activity change, negative = inhibition": "inactive: -4.28%"},
      {"smiles": "CCN(C(=O)Cn1cc(S(=O)(=O)N2CCN(c3ccccc3F)CC2)c2ccccc2c1=O)c1ccc(C)c(C)c1", "Potency": "inconclusive [inhibitor, single point]"},
      {"smiles": "Cc1ccc(NC(=O)Cn2c(=O)n(-c3ccccc3)c(=O)c3ccc(C(=O)NCc4ccc5c(c4)OCO5)cc32)cc1", "activity change, negative = inhibition": "inactive: 3.08%"},
      {"smiles": "COc1ccc(C(=O)NCC(c2ccco2)N2CCc3ccccc3C2)c(OC)c1", "note": "(stereo not drawn)", "Potency": "inconclusive [inhibitor, single point]"},
      {"smiles": "CC12CN3CCN(CC(C3)C1(O)CN1CCCCC1)C2", "note": "(stereo not drawn)", "activity change, negative = inhibition": "inactive: -21%"},
      {"smiles": "CC1CCN(c2ccc3c(c2)S(=O)(=O)c2cccc(C(=O)NCc4cccc(F)c4)c2C3=O)CC1", "activity change, negative = inhibition": "inactive: 19.4%"},
      {"smiles": "O=S(=O)(NNc1ccc(F)cc1F)c1cccc(Cl)c1", "Potency": "inconclusive [inhibitor, full curve]"},
      {"smiles": "CCc1ccc(NC(=O)C2CCC(CNC(=O)[C@@H]3Cc4ccccc4CN3)CC2)cc1", "note": "(stereo partly drawn)", "Potency": "inconclusive [inhibitor, single point]"},
      {"smiles": "COc1ccccc1NC(=O)CCC(=O)c1ccc(-c2ccccc2)cc1", "Potency": "inconclusive [inhibitor, single point]"},
      {"smiles": "COC(=O)c1cc2ccccc2c([N+](=O)[O-])c1O", "activity change, negative = inhibition": "inactive: 13%"},
      {"smiles": "COc1ccc(Oc2coc3cc(OC(=O)/C=C/c4ccccc4)ccc3c2=O)cc1", "activity change, negative = inhibition": "inactive: -8.21%"},
      {"smiles": "Cc1cc(C(=O)CN2C(=O)NC(C)(CC(C)C)C2=O)c(C)n1-c1ccc2c(c1)OCO2", "note": "(stereo not drawn)", "Potency": "inconclusive [inhibitor, partial curve, poor fit]"},
      {"smiles": "O=[N+]([O-])c1cc(S(=O)(=O)Nc2ccccc2)ccc1NCc1ccccc1", "Potency": "inconclusive [inhibitor, single point]"},
      {"smiles": "CCOC(=O)c1c(-c2ccc(C)o2)csc1NC(=O)CSc1nnnn1-c1ccccc1", "Potency": "inconclusive [inhibitor, single point]"},
      {"smiles": "CCN(CC)S(=O)(=O)c1ccc(Cl)c(C(=O)NCc2ccccc2Cl)c1", "Potency": "inconclusive [inhibitor, partial curve, poor fit]"},
      {"smiles": "O=C(c1cccc(F)c1)N1CCN(c2cccc(Cl)c2)CC1", "Potency": "inconclusive [inhibitor, partial curve, poor fit]"},
      {"smiles": "CC(=O)N(c1ccc(Cl)cc1)c1c[nH]c2ccccc12", "activity change, negative = inhibition": "inactive: -8.47%"},
      {"smiles": "CN(CC(=O)OCC(=O)c1c(N)n(C)c(=O)n(C)c1=O)S(=O)(=O)c1ccc(Cl)cc1", "Potency": "inconclusive [inhibitor, full curve, poor fit]"},
      {"smiles": "C[C@H](c1ccccc1)N1C[C@@H](COCc2ccccc2)Oc2cc(N3CC[C@@H](N(C)C)C3)ccc2S1(=O)=O", "Potency": "inconclusive [inhibitor, partial curve, poor fit]"},
      {"smiles": "O=c1c2c3nc4ccccc4nc3n(/N=C/c3ccccn3)c2ncn1-c1ccccc1", "Potency": "inconclusive [inhibitor, single point]"},
      {"smiles": "CCN(c1cccc(C)c1)S(=O)(=O)c1cccc2nsnc12", "Potency": "inconclusive [inhibitor, partial curve, poor fit]"},
      {"smiles": "COc1ccc(Br)cc1/C=C/C(=O)Nc1ccc2ccccc2c1", "activity change, negative = inhibition": "inactive: -12.2%"},
      {"smiles": "COc1ccc(CN2CCN(C(=O)CC(C)C)CC2)c(OC)c1OC", "activity change, negative = inhibition": "inactive: -1.98%"}
    ]}
  ]
}
